Laboratory results: publication PMC8308780, “Antiviral Activity of Isoquinolone Derivatives against Influenza Viruses and Their Cytotoxicity” (Pharmaceuticals, 2021)

System: PR8 virus

COc1cc2cc(-c3ccccc3)[nH]c(=O)c2cc1OC [Compound 21, 6,7-dimethoxy-3-phenylisoquinolone]
NP expression (Western blot): inhibition of NP expression
